# Assay results from publication PMC7819943, “Rice protein-binding microarrays: a tool to detect cis-acting elements near promoter regions in rice”.
# The other results are listed elsewhere or left out.
# Biological target: T1, OsWOX13 (Oryza sativa, UniProt Q5QMM3 1-267)
# T1 sequence: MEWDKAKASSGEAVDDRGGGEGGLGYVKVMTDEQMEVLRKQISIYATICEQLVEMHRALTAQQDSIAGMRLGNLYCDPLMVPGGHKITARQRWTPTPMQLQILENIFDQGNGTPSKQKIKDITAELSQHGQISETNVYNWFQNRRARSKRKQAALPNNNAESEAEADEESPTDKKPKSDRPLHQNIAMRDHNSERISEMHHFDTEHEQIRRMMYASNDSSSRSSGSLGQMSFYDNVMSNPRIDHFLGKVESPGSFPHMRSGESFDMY
# Test: protein-binding microarray (RPBM); PBS, 2% BSA, 51.3 ng/ul salmon testes DNA, 50 uM zinc acetate, 200 nM TF, 25 C, 1 h; high values mean tight binding
# Conditions: protein: recombinant; tags: N-terminal polyhistidine and DsRed monomer fusion (pET32a); label: CyDye5-dUTP incorporated in the synthesized complementary strand; 3' TTTTT single-stranded linker to array surface; dsDNA, one strand shown
# Summary of the method: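 The binding signal is fluorescence intensity per array feature (arbitrary units). Readings came from an Axon 4000B scanner after a washed, 2% BSA-blocked, double-stranded custom Agilent array had been incubated for 1 h at 25 °C with 200 nM protein and 50 µM zinc acetate. The protein was a Ni–NTA-purified transcription factor fused N-terminally to polyhistidine and DsRed, expressed in E. coli BL21-CodonPlus.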
row,Sequence,binding signal
1,CTAGATTAGTCCTCCCTATCCTTGATAATTACGCACGCTCCGGAGTCACCTAGTGCAG,22800 fluorescence intensity (a.u.)
2,ACGATTGAACTAGTTTAGTGGGTCCCTATTAGGTTATCTTCGGAGTCACCTAGTGCAG,4670 fluorescence intensity (a.u.)
3,TACTGTAATGTAATTACAATATAACTACATTGTAATCTCTCGGAGTCACCTAGTGCAG,12100 fluorescence intensity (a.u.)
4,TTCCAATGTTAATTGTTTGCAAATTGTCATTGTTTGCTGGCGGAGTCACCTAGTGCAG,28000 fluorescence intensity (a.u.)
5,GGTCAAATTTAAACTTGTATGTTAGTGTAGTGATATCTCACGGAGTCACCTAGTGCAG,7670 fluorescence intensity (a.u.)
6,TTAATTTATATTAGAGTTTACATATATACTCCCTCCATCTCGGAGTCACCTAGTGCAG,11300 fluorescence intensity (a.u.)
7,TATTACCTTAATTTCCTACTAATCGTAGTAGGCTGCTACTCGGAGTCACCTAGTGCAG,4860 fluorescence intensity (a.u.)
8,GGATTGGTACGTCTAAATTCAATTAATGTGTAGTATGTTCCGGAGTCACCTAGTGCAG,6100 fluorescence intensity (a.u.)
9,GTGTTATCTGTAAGGCTGTAATTGAACTTGCTTGTGATGTCGGAGTCACCTAGTGCAG,3470 fluorescence intensity (a.u.)
10,CAGGTTATTTCACAGGATTGATCAGGACAATGATGGAAAGCGGAGTCACCTAGTGCAG,8170 fluorescence intensity (a.u.)
11,TACAATTGATTATGTAAAGTTTGTGTCTTGTACTAGAGGGCGGAGTCACCTAGTGCAG,43900 fluorescence intensity (a.u.)
12,ATAAATGGCTAACCCTGATTATTTTACAGGCGAATCGCTTCGGAGTCACCTAGTGCAG,10900 fluorescence intensity (a.u.)
13,ATGTTGATTGCACAATAGAGAATCATCCAACTAGAATGACCGGAGTCACCTAGTGCAG,27100 fluorescence intensity (a.u.)
14,AATATCAATCAATAGCTTTGCGGCGACGCCCTTCCTCGCGCGGAGTCACCTAGTGCAG,20300 fluorescence intensity (a.u.)
15,CTTAATTAGCGCGAATATATCTAACATATGCATATGGAAGCGGAGTCACCTAGTGCAG,24600 fluorescence intensity (a.u.)
16,ATTTGTTGATTGCTCTGTTGGGTTACCATCGATTTCTCTGCGGAGTCACCTAGTGCAG,36700 fluorescence intensity (a.u.)
17,TACCCCAATCAAACCTAACACATCTTAACAAATCCCATTTCGGAGTCACCTAGTGCAG,3660 fluorescence intensity (a.u.)
18,CCGCTGTCATCTCCTTTACTGATAACCATTTACTCATCCACGGAGTCACCTAGTGCAG,3980 fluorescence intensity (a.u.)
19,TTGGGTAAAACCTATAGTTTAACTGCTTATCCATATATTACGGAGTCACCTAGTGCAG,15100 fluorescence intensity (a.u.)
20,GGTGTAAATTGGACTTATCCCCAAATTACCTCGAGGCCCACGGAGTCACCTAGTGCAG,30700 fluorescence intensity (a.u.)
21,ACTAATTATACAGATTGCGTGTAAATTGTGAGACGAATCTCGGAGTCACCTAGTGCAG,41000 fluorescence intensity (a.u.)

row,Sequence,binding signal
1,AATAAATATATATATATACCTAAATTTATTAACATGTGGACGGAGTCACCTAGTGCAG,3180 fluorescence intensity (a.u.)
2,TGAGGATGATTGCCCAACGGATGGGAGAGACGACGGCTACCGGAGTCACCTAGTGCAG,9400 fluorescence intensity (a.u.)
3,TGGATTGGATTAGTGTGTCCCTGCCTCTCTGGAATGGATACGGAGTCACCTAGTGCAG,6490 fluorescence intensity (a.u.)
4,GCAATCACCATTTTGTAAACAAATCATGCATCCTGCCGGTCGGAGTCACCTAGTGCAG,6260 fluorescence intensity (a.u.)
5,AGGTCAATCAACACTAACAAATGGCTTTATATATACATAGCGGAGTCACCTAGTGCAG,26200 fluorescence intensity (a.u.)
6,GGGGTTAGATGGGCTCATTTAGATGGGATTAAATGGGCCGCGGAGTCACCTAGTGCAG,5080 fluorescence intensity (a.u.)
7,TGATTGATTGCTTGATTGGGAGTGTCCTTTGGGCGAGCTGCGGAGTCACCTAGTGCAG,64900 fluorescence intensity (a.u.)
8,CGGAAACAGATCATCAAACCCATACGTCAGTGATCCAAGTCGGAGTCACCTAGTGCAG,3420 fluorescence intensity (a.u.)
9,TCCCTGTTGATGAAATGACAACCACATCGAATAGGTAGGGCGGAGTCACCTAGTGCAG,3230 fluorescence intensity (a.u.)
10,ATAATTTGCATGTAAATTATAAGACGAATCTTTTGAGCCTCGGAGTCACCTAGTGCAG,36600 fluorescence intensity (a.u.)
11,CTTGTGATGATACTGATAGACGGTTGTTCCAAGCAGCAACCGGAGTCACCTAGTGCAG,13400 fluorescence intensity (a.u.)
12,CATTTTGTTAGATTGAGTCTTTTCTTTCTTCTTCATCTATCGGAGTCACCTAGTGCAG,5960 fluorescence intensity (a.u.)
13,TATAATTGTAGGATTGGGATTTGTATATTAATATATACAGCGGAGTCACCTAGTGCAG,21200 fluorescence intensity (a.u.)
14,ACTGATTGTATTGTATAGTAGTATTGCTGTATTAGTTTGTCGGAGTCACCTAGTGCAG,31500 fluorescence intensity (a.u.)
15,CACCAAGAATTGAATTAATTATGTATATATATTGCCAATCCGGAGTCACCTAGTGCAG,10600 fluorescence intensity (a.u.)
16,AGATTAAGATTAAGTGATTTACGTAAAACGAGGTAATAATCGGAGTCACCTAGTGCAG,3310 fluorescence intensity (a.u.)
17,TTGATTGCTTGTTTGATTGGTGGTTCTTGAGCGAGAAGAGCGGAGTCACCTAGTGCAG,63300 fluorescence intensity (a.u.)
18,TAGTTAAATCCATCAATCCAGGATGGTTCATTTGATTTAGCGGAGTCACCTAGTGCAG,4240 fluorescence intensity (a.u.)
19,AATGTGTAATTATTTCGAGGAAAAGTTTCTTTTCTCCCTTCGGAGTCACCTAGTGCAG,5400 fluorescence intensity (a.u.)
20,AGTGATTGTGTTTAATCTTAATGACTCGCTCCCCTCACACCGGAGTCACCTAGTGCAG,27000 fluorescence intensity (a.u.)
21,TTTTGTACAAAATCATGTCATAATGATATCGTGCCTTGTACGGAGTCACCTAGTGCAG,3420 fluorescence intensity (a.u.)
